Source: the RNAGym collection of RNA variant scans (doi:10.1093/nar/gkz1192)
Read counts are not given, so values of variants with three or more changes are uncertain.

B1: CPEB3 Ribozyme (parent)
chain: UAACAGGGGGCCACAGCAGAAGCGUUCACGUCGCAGCCCCUGUCAGAUUCUGGUGAAUCUGCGAAUUCUGCUGUAUAUCUC

Variants of: B1
Assay: self-cleavage, relative activity (ratio to wild type); higher = more cleavage; in vitro, sequencing
Summary of the method: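 Libraries of CPEB3 self-cleaving ribozyme mutants came from rounds of error-prone PCR and carried barcodes, which DNA sequencing matched to variants. In vitro transcription used T7 RNA polymerase at 37°C for 5 hours, with a further 15 min in DNase I before EDTA stopped the reaction; the ribozymes cleaved during both steps. The RNA was reverse transcribed with template switching and sequenced on Illumina. Relative activity is the cleaved/total read fraction of a variant divided by that of the unmutated ribozyme, averaged over three batches with at least 5 reads.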

| Variant | self-cleavage |
| --- | --- |
| UAACAGGGGGCCACAGCAGAAGCGUUCACGUCGCAGCCCCUGUCAGACUCUGGUGAAUCUGCGAAUCCUGCAGUAUAUCUC | 0.35 |
| UAACAGGGGGCCACAGCAGAAGCGUUCACGUCGCAGCCCCUGUCAGACUCUGGUGAAUCUGCGAAUUCAGCUGUAUUUCUC | 0.19 |
| UAACAGGGGGCCACAGCAGAAGCGUUCACGUCGCAGCCCCUGUCAGACUCUGGUGAAUCUGCGAAUUCAGCUGUAUAUCCC | 0.49 |
| UAACAGGGGGCCACAGCAGAAGCGUUCACGUCGCAGCCCCUGUCAGACUCUGGUGAAUCUGCGAAUUCUGCGGCAAAUCUC | 0.27 |
| UAACAGGGGGCCACAGCAGAAGCGUUCACGUCGCAGCCCCUGUCAGAGUCAGGUGAAUCAGCGGAUUCUGCUGUAUAUCUC | 0.13 |
| UAACAGGGGGCCACAGCAGAAGCGUUCACGUCGCAGCCCCUGUCAGAGUCUGGUGAACCUGCGAAUUCUGCCGUAUAUUUC | 0.15 |
| UAACAGGGGGCCACAGCAGAAGCGUUCACGUCGCAGCCCCUGUCAGAGUCUGGUGAAUCUGCGAACUCUCCUGUAUAUCUC | 0.17 |
| UAACAGGGGGCCACAGCAGAAGCGUUCACGUCGCAGCCCCUGUCAGAUACUGGUGGAUCUGCGAAUUCUGCUGUAUAUCAC | 0.78 |
| UAACAGGGGGCCACAGCAGAAGCGUUCACGUCGCAGCCCCUGUCAGAUACUGGUGAGUCUGCGGAUUCUGCUGUCUAUCUC | 0.33 |
| UAACAGGGGGCCACAGCAGAAGCGUUCACGUCGCAGCCCCUGUCAGAUACUGGUGAGUCUGCGAAUUCUGCAGUACAUCUC | 0.35 |
| UAACAGGGGGCCACAGCAGAAGCGUUCACGUCGCAGCCCCUGUCAGAUACUGGUGAAUCUGCGAGUCAUGCUGUAUAUCUC | 0.4 |
| UAACAGGGGGCCACAGCAGAAGCGUUCACGUCGCAGCCCCUGUCAGAUACUGGUGAAUCUGCGAAUUACGCUGCAUAUCUC | 0.18 |
| UAACAGGGGGCCACAGCAGAAGCGUUCACGUCGCAGCCCCUGUCAGAUACCGGUGAAUCUGCGAGUUCUGCUGUAUAUCUC | 0.2 |
| UAACAGGGGGCCACAGCAGAAGCGUUCACGUCGCAGCCCCUGUCAGAUACCGGAGAAUCUGCGAAUUCUGCUGUAUAUCUC | 0.86 |
| UAACAGGGGGCCACAGCAGAAGCGUUCACGUCGCAGCCCCUGUCAGAUACUGGCGAAUCUGCGAAUUCUGUUGUAUAUCUC | 0.26 |
| UAACAGGGGGCCACAGCAGAAGCGUUCACGUCGCAGCCCCUGUCAGAUACUGGUGAAACUGCGAAUUCUGCUGCAUAUCUC | 0.21 |
| UAACAGGGGGCCACAGCAGAAGCGUUCACGUCGCAGCCCCUGUCAGAUACUGGUGAAUCCGCAAGUUCUGCUGCAUAUCUC | 0.11 |

| Variant | self-cleavage |
| --- | --- |
| UAACAGGGGGCCACAGCAGAAGCGUUCACGUCGCAGCCCCUGUCAGAUACUGGUGAAUCUGCGAAAUCUGCUGUAUGACUC | 0.13 |
| UAACAGGGGGCCACAGCAGAAGCGUUCACGUCGCAGCCCCUGUCAGAUACUGGUGAAUCUGCGAACUCUGCUGUAUUUCUC | 0.2 |
| UAACAGGGGGCCACAGCAGAAGCGUUCACGUCGCAGCCCCUGUCAGAUACUGGUGAAUCUGCGAAUUCCGCUGUAUACCUC | 0.27 |
| UAACAGGGGGCCACAGCAGAAGCGUUCACGUCGCAGCCCCUGUCAGAUACUGGUGAAUCUGCGAAUUCUGCUGUAUAGCUU | 0.97 |
| UAACAGGGGGCCACAGCAGAAGCGUUCACGUCGCAGCCCCUGUCAGAUCCUGGUGGAUCUGUGGGUUCUGCUGUAUAUCUC | 0.12 |
| UAACAGGGGGCCACAGCAGAAGCGUUCACGUCGCAGCCCCUGUCAGAUCCUGGUGUAGCCGCGAAUUCUGCGGUAUACCUC | 0.1 |
| UAACAGGGGGCCACAGCAGAAGCGUUCACGUCGCAGCCCCUGUCAGAUCCUGGUGAGUCUUCGAAUGCUGCUGUAUAUCAC | 0.11 |
| UAACAGGGGGCCACAGCAGAAGCGUUCACGUCGCAGCCCCUGUCAGAUCCUGGUGAGUCUGCGAAUUCUGCAGUAUAUCUC | 0.11 |
| UAACAGGGGGCCACAGCAGAAGCGUUCACGUCGCAGCCCCUGUCAGAUCCUGGUGAGUCUGCGAAUUCUGCUGUAUACCUC | 0.42 |
| UAACAGGGGGCCACAGCAGAAGCGUUCACGUCGCAGCCCCUGUCAGAUCCUGGUGAUUCUGCGAAUUCCGCUGUAUAUCUC | 0.1 |
| UAACAGGGGGCCACAGCAGAAGCGUUCACGUCGCAGCCCCUGUCAGAUCCUGGUGAAUCUGCGGACUCUGCUGUAUAGCUC | 0.09 |
| UAACAGGGGGCCACAGCAGAAGCGUUCACGUCGCAGCCCCUGUCAGAUCCUGGUGAAUCUGCGGAUUCUGCUGCAUAUCUC | 0.24 |
| UAACAGGGGGCCACAGCAGAAGCGUUCACGUCGCAGCCCCUGUCAGAUCCUGGUGAAUCUGCGAGUUCCGCUGUAUAUCUC | 0.38 |
| UAACAGGGGGCCACAGCAGAAGCGUUCACGUCGCAGCCCCUGUCAGAUCCUGGUGAAUCUGCGAGUUCUGCCGUAUACCUC | 0.12 |
| UAACAGGGGGCCACAGCAGAAGCGUUCACGUCGCAGCCCCUGUCAGAUCCUGGUGAAUCUGAGAAUUCUGCGGUAUAUCUC | 0.2 |
| UAACAGGGGGCCACAGCAGAAGCGUUCACGUCGCAGCCCCUGUCAGAUCCUGGUGAAUCUGUGAACUCUGCUGUAUAUCUC | 0.17 |
| UAACAGGGGGCCACAGCAGAAGCGUUCACGUCGCAGCCCCUGUCAGAUCCUGGUGAAUCUGUGAAUUCUGCUGCAUAUCCC | 0.16 |
